# Whole data set: some 33,000 sequences, median “E-score (-0.5 to 0.5)” near -0.016, cut for the highest 2% near 0.32. The list shows a part of the results.
# Molecular target: T1, Stp1 (UniProt B3LFK1)
# T1 sequence: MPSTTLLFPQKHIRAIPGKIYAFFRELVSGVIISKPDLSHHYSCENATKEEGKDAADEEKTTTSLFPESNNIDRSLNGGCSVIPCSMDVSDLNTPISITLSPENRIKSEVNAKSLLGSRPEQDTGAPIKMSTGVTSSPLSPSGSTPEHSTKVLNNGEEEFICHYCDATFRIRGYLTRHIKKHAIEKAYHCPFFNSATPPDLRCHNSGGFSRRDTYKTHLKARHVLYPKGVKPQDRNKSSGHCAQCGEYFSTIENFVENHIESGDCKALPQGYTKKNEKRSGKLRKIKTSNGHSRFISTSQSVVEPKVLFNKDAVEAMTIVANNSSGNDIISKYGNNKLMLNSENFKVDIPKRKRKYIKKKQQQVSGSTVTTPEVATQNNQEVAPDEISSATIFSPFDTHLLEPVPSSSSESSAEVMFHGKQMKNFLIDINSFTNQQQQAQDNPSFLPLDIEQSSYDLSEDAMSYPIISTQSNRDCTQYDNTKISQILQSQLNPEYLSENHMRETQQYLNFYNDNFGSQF
# Assay: PBM E-score (8-mer binding enrichment) (E-score (-0.5 to 0.5)); higher = stronger / more preferred TF binding; most listed sequences are background and not binding sites
# Details: protein concentration: 200 nM; construct: GST-full length
# Protocol: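 Universal 'all 10-mer' protein binding microarrays (Agilent AMADID 015681) probed with GST-tagged S. cerevisiae TFs (full-length or DBD) made by in vitro transcription/translation (PURExpress), about 100-200 nM. Bound TF was detected with fluorescent anti-GST. Each ungapped 8-mer (which stands for itself and its reverse complement) is scored by the PBM enrichment score (E-score), a modified Wilcoxon-Mann-Whitney statistic from -0.5 to +0.5, computed with the Universal PBM Analysis Suite. Scale: above 0.35 generally sequence-specific binding.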
row,Sequence,PBM E-score
1,GACTACCA,-0.268
2,CTGTAGTA,0.222
3,AGCTGACT,-0.0709
4,CTGCGAAA,0.0908
5,CGATCACC,-0.108
6,ACGACTCT,-0.119
7,GTTCATCA,-0.0633
8,GCAGATAC,0.128
9,CTGATATA,0.136
10,AGCACTAG,-0.0715
11,AACGTGCA,0.0355
12,GATAGCCC,-0.217
13,GATTTTTA,0.0265
14,CCTTCGAG,-0.147
15,CCGGCGTA,0.0906
16,CATCTGGA,-0.0318
17,GGATTGTA,0.00146
18,CCTCTCGA,-0.0526
19,AGCATCCG,-0.151
20,ATGCTCTG,-0.204
21,CAATGTTC,-0.165
22,AACGTGGG,-0.175
23,ATCGCACA,-0.129
24,GCGCATGA,0.0374
25,CATGCACA,0.0872

row,Sequence,PBM E-score
1,GGGACTTA,-0.269
2,CTACGAAG,-0.159
3,CAACCCTG,-0.232
4,ACCTACGT,-0.171
5,AGGGATTG,-0.0197
6,GCGCGGTA,0.192
7,TACCTCCA,-0.168
8,AGTGCTAA,-0.148
9,ACACTACC,-0.183
10,GTCAGCCA,-0.182
11,AGTCATAT,-0.0128
12,ACCGATCG,-0.0193
13,AAGCTTAG,0.0859
14,CGACAGGA,0.0372
15,ATTTGGAG,-0.0679
16,ACCCTATC,-0.117
17,TCTGAGCA,-0.124
18,GAGACGTA,-0.074
19,CGTACTCC,-0.0311
20,CCTATTTC,0.0538
21,ACATTAAA,0.0894
22,CCTGTATA,0.0272
23,ACAGCGAG,-0.135
24,CCACGTGA,0.107
25,TGATTTAA,0.221

row,Sequence,PBM E-score
1,GCAATTGC,0.262
2,AAAGTCTC,-0.173
3,AACCTTAA,0.0831
4,GGGTGCTA,-0.113
5,GGGGCTAA,-0.174
6,ACCGAAAA,0.15
7,ATATAGGC,0.0688
8,CAACAAGC,0.0461
9,GCAGCACC,-0.237
10,ACACTAAA,0.156
11,AGCGCGTC,-0.0749
12,ACTTCCTA,-0.21
13,CGTTAGAA,0.0696
14,AGAGACAC,-0.183
15,ACGTAAAT,0.0468
16,AGAAAACT,0.086
17,GCGAACCC,0.0483
18,ACGGACCC,-0.112
19,AATGTCGT,-0.0428
20,CGAACGTA,-0.0114
21,GGCCGCAA,0.131
22,CCATGTCC,-0.134
23,CTGGGTCC,-0.323
24,CGGTGCTA,-0.0881
25,CATCTAAC,0.0715

row,Sequence,PBM E-score
1,CAAACGCA,-0.0885
2,CATTGGAG,-0.074
3,AGCCCGGA,-0.298
4,CATATTGA,-0.0282
5,CTCTGTCC,-0.193
6,CATCACGA,0.0263
7,ATACATTC,-0.181
8,CTAGGCAA,-0.0541
9,ACAAGAGA,-0.0297
10,GACTTGCC,-0.103
11,AATGACAG,-0.0923
12,AATGACTC,-0.225
13,CAGTGGGC,0.00978
14,CAATGGCC,-0.167
15,CCCCTGCA,-0.289
16,GACATCAC,0.0238
17,GTAACTAA,0.0925
18,CGGGTGCA,-0.0822
19,GTCGTGGA,-0.0594
20,AATTCCTC,-0.167
21,CCTATATC,0.03
22,ACATGAGT,-0.141
23,GATTTTAC,-0.0481
24,ACTTGAGC,-0.222
25,ATATAGTA,0.134

row,Sequence,PBM E-score
1,GCCGCGAA,0.159
2,CTAATAGA,0.142
3,GGAACGAC,-0.196
4,GACGAAGC,0.00857
5,CGTCCGAC,-0.146
6,CATCCCCC,-0.273
7,AGAGGTAC,-0.122
8,TCTGCGCA,0.0892
9,CTCATAAG,0.0274
10,ACCAGGAG,-0.0553
11,ACAAGACC,-0.193
12,AAGTAGAA,0.0178
13,CTCGAAGC,-0.053
14,CGAAATAG,0.0687
15,GACATAGC,0.0411
16,AAGCGCGA,-0.0441
17,GAGCGATC,-0.191
18,TCGGCAAA,0.0291
19,ATCGCACG,0.0568
20,GATCTTGC,0.102
21,CGACCAGA,-0.0314
22,ATCAGTTG,0.00725
23,CTTCCATC,0.0176
24,CAGTACTA,-0.141
25,CCGTGTAC,0.287

row,Sequence,PBM E-score
1,ATAACCCC,-0.223
2,AATAGACT,-0.149
3,ACTCTCCC,-0.159
4,ATCGGGGC,-0.219
5,ACCAAGGA,0.046
6,GGCGAAGA,0.0587
7,TAATTATA,0.254
8,CTGAATAA,0.138
9,AGACGGGG,-0.154
10,CATTATGA,0.0784
11,CACTAGTG,0.056
12,CCCAAAAC,0.00365
13,AGCCCCTC,-0.203
14,GTCGTTAA,-0.0161
15,CACGGTAG,-0.0367
16,ACCACTTG,-0.105
17,CAAGGATA,0.0131
18,CGCACTAC,-0.0159
19,CCAGCTTC,-0.115
20,CCCCTACG,-0.221
21,AGCACATC,-0.123
22,AGATTCGG,0.0539
23,CGGGGGAG,-0.332
24,TGCACTAA,0.109
25,ATCGCTTA,-0.214

row,Sequence,PBM E-score
1,GACGGATA,0.0788
2,AGTGGATA,-0.0358
3,TCCGATAA,-0.173
4,ACTATTGA,0.157
5,GAGTATGA,-0.0107
6,AATAATCC,-0.0326
7,ACCCGCCC,-0.0208
8,AACTCTGG,-0.0499
9,GTACCTAA,-0.0311
10,CGTAGCTA,-0.0994
11,AACCCTGC,-0.232
12,ATGTGTCA,0.0685
13,CACATATG,0.0756
14,ACAATCCT,0.00881
15,CTGGCTAC,-0.0658
16,CGGGCTGC,-0.0505
17,GATTTATA,0.165
18,AGTTTCCA,0.0131
19,ATTGCTGG,-0.0603
20,TATCCACA,0.0396
21,CTATGGAC,0.0331
22,ACGTCTTG,-0.00832

# Reference: the supplement of paper PMC3334620
